Assay results taken from PubChem BioAssay AID1508624 (National Center for Advancing Translational Sciences (NCATS), 2021).
Hit rate of the full screen: of about 48,000 compounds, about 120 (0.25%) were called active. Roughly 4% stayed inconclusive and do not appear here. The call rests on the fitted dose curve; in most records, active means well fitted activation curve with a large enough effect; inconclusive means small, poorly fitted or top-dose-only effect, or another doubt; inactive means no such curve, though single readings can be large or run the other way. Some of the results follow.

assay: Primary qHTS for Identification of Small Molecule Activators of Huntingtin-Antisense Promoter Activity; conditions: HEK293 HTT-AS promoter firefly luciferase reporter (activity 0% = vehicle and -100% = no light), 24 h; series mostly up to 57.5 µM; activity change, positive = activation: at the top concentration; further: nearly all actives have a fitted effect of over 55% in size
How it was run: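 Luminescence was read after Dual-Glo reagent and a 10 min room-temperature incubation. Values were normalized to vehicle (0% activity) and zero RLU (-100% activity). Reporter HEK293 cells had been exposed to compounds (up to 57.5 uM final) for 24 h.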

Activity change, positive = activation, inactive:
CCC(C(=O)NCc1ccco1)n1nc(C)c2c(C)n(-c3ccc(C)cc3)nc2c1=O (stereo unspecified) -32.5%
Cc1cccc(C(=O)NCC(=O)OCc2cc(=O)n3nc(CC(C)C)sc3n2)c1 9.63%
COc1cccc(C(=O)N2CCN(CCc3ccncc3)CC2)c1 -17%
CN(C)c1ccc(CNC(=O)c2cccc(NC(=O)N3CCSc4ncccc43)c2)cc1 -15%
O=C1N(Cc2ccccc2)c2ccc(Cl)cc2C1(O)c1c[nH]c2ccccc12 (stereo unspecified) -18%
Cc1cc2nc(-c3ccc(OCc4ccccc4Cl)cc3)cc(C(F)(F)F)n2n1 -4.59%
COc1ccccc1NC(=O)Cn1c(SCC(=O)N(C)c2ccccc2)nc2ccccc21 -33.5%
Cc1ccc(NS(=O)(=O)c2ccc3c(c2)n(C)c(=O)n3C)cc1C -20.8%
Cc1ccc(S(=O)(=O)NC2(C(F)(F)F)NC(=O)N(CCc3ccccc3)C2=O)cc1 (stereo unspecified) -12.2%
COc1cccc2c1cc1c(=O)n(CC(=O)N3CCN(c4ccc(Cl)cc4)CC3)nc(C)n12 0.152%
Fc1ccc(Nc2ncnc3onc(-c4cccc(Cl)c4)c23)c(F)c1 -9.33%
O=C(NCCn1cc(SCc2ccccc2Cl)c2ccccc21)c1cccs1 -23.3%
Cc1cc(C)cc(NC(=O)Cn2cc(S(=O)(=O)NC(C)(C)C)c(S(=O)(=O)NC(C)(C)C)c2)c1 -47.1%
N#CC(c1ccnc(NCCc2cccnc2)n1)c1nc2ccccc2s1 (stereo unspecified) -29.7%
CCOc1ccccc1NC(=O)CSc1nnc2[nH]c(=O)cc(-c3ccccc3)n12 23.3%
O=C(Nc1ccccc1Cl)C1CCN(c2nc3ccccc3nc2C(F)(F)F)CC1 -3.68%
CCN1CCN(Cc2nc3cc(NC(=O)c4cc(OC)c(OC)c(OC)c4)ccc3n2CC)CC1 -0.0085%
Cc1ccc(CNC(=O)N2CCC(CN3CCC(C)CC3)CC2)cc1 -6.46%
COc1ccc(S(=O)(=O)n2nc(-c3ccco3)nc2NCc2ccc(N(C)C)cc2)cc1 -10.5%
COc1ccc(S(=O)(=O)c2cn(CC(=O)Nc3cc(C)ccc3C)c3ccccc3c2=O)cc1 7.09%
CCC1CN(C(=O)NCc2ccc(C)cc2)c2cc(Cl)ccc2O1 (stereo unspecified) -29.8%
COc1ccc(NC(=O)Cn2cnc3sc(C)c(S(=O)(=O)N4CCN(c5ccccc5OC)CC4)c3c2=O)cc1OC 10.7%
CC(C)c1ccc(NC(=O)CN2C(=O)COc3ccc(S(=O)(=O)N4CCCCC4)cc32)cc1 -31.8%
Cc1ccc2scc(N3CCc4ccccc4C3)c(=O)c2c1 21.3%
Cc1ccc(C)c(N2CCN(C(=O)Cn3ncc4c(=O)oc5ccccc5c43)CC2)c1 -1.47%
COc1cc(OC)cc(-c2nc3nc(C)c(CCC(=O)Nc4ccc(C)c(C)c4)c(C)n3n2)c1 -7.92%
